The labels stand for the following.
T1: RBFOX1 RRM RbFoxmut (Fox-RRM*) (Homo sapiens, UniProt Q9NWB1 109-208, R118D;E147R;N151S;E152T)
T1 sequence: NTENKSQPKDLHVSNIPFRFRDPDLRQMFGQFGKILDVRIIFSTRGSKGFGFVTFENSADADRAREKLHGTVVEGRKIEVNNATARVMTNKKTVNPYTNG

B1: GCAGUUC (DNA:RNA)
RNA: GGGAGACCGGAAUUCAGAUUGUCCGCAGUUCUUAAAUCCCGUCGUAGCCACCA
DNA 1: CAATCTGAATTCCGGTCTCCC
DNA 2: TGGTGGCTACGACGGGATT
B2: ACAUCGG (DNA:RNA)
RNA: B1 RNA with G25A, G28U, U29C, U30G, C31G
DNA 1: CAATCTGAATTCCGGTCTCCC
DNA 2: TGGTGGCTACGACGGGATT
B3: GCGCGAC (DNA:RNA)
RNA: B1 RNA with A27G, G28C, U29G, U30A
DNA 1: CAATCTGAATTCCGGTCTCCC
DNA 2: TGGTGGCTACGACGGGATT
B4: CGGUCUC (DNA:RNA)
RNA: B1 RNA with G25C, C26G, A27G, G28U, U29C
DNA 1: CAATCTGAATTCCGGTCTCCC
DNA 2: TGGTGGCTACGACGGGATT
B5: CUGCAUU (DNA:RNA)
RNA: B1 RNA with G25C, C26U, A27G, G28C, U29A, C31U
DNA 1: CAATCTGAATTCCGGTCTCCC
DNA 2: TGGTGGCTACGACGGGATT
B6: GCACCAA (DNA:RNA)
RNA: B1 RNA with G28C, U29C, U30A, C31A
DNA 1: CAATCTGAATTCCGGTCTCCC
DNA 2: TGGTGGCTACGACGGGATT
B7: GUGUAGA (DNA:RNA)
RNA: B1 RNA with C26U, A27G, G28U, U29A, U30G, C31A
DNA 1: CAATCTGAATTCCGGTCTCCC
DNA 2: TGGTGGCTACGACGGGATT
B8: ACGGCUC (DNA:RNA)
RNA: B1 RNA with G25A, A27G, U29C
DNA 1: CAATCTGAATTCCGGTCTCCC
DNA 2: TGGTGGCTACGACGGGATT
B9: CCGCCUG (DNA:RNA)
RNA: B1 RNA with G25C, A27G, G28C, U29C, C31G
DNA 1: CAATCTGAATTCCGGTCTCCC
DNA 2: TGGTGGCTACGACGGGATT
B10: CCAUAUA (DNA:RNA)
RNA: B1 RNA with G25C, G28U, U29A, C31A
DNA 1: CAATCTGAATTCCGGTCTCCC
DNA 2: TGGTGGCTACGACGGGATT
B11: GACACUC (DNA:RNA)
RNA: B1 RNA with C26A, A27C, G28A, U29C
DNA 1: CAATCTGAATTCCGGTCTCCC
DNA 2: TGGTGGCTACGACGGGATT
B12: AAAUACC (DNA:RNA)
RNA: B1 RNA with G25A, C26A, G28U, U29A, U30C
DNA 1: CAATCTGAATTCCGGTCTCCC
DNA 2: TGGTGGCTACGACGGGATT
B13: AAGAAAU (DNA:RNA)
RNA: GGGAGACCGGAAUUCAGAUUGUCCAAGAAAUUUAAAUCCCGUCGUAGCCACCA
DNA 1: CAATCTGAATTCCGGTCTCCC
DNA 2: TGGTGGCTACGACGGGATT
B14: AGAAGUU (DNA:RNA)
RNA: B13 RNA with A26G, G27A, A29G, A30U
DNA 1: CAATCTGAATTCCGGTCTCCC
DNA 2: TGGTGGCTACGACGGGATT
B15: CGGCAGU (DNA:RNA)
RNA: B13 RNA with A25C, A26G, A28C, A30G
DNA 1: CAATCTGAATTCCGGTCTCCC
DNA 2: TGGTGGCTACGACGGGATT
B16: GUUCCAG (DNA:RNA)
RNA: B13 RNA with A25G, A26U, G27U, A28C, A29C, U31G
DNA 1: CAATCTGAATTCCGGTCTCCC
DNA 2: TGGTGGCTACGACGGGATT
B17: AAUUGAC (DNA:RNA)
RNA: B13 RNA with G27U, A28U, A29G, U31C
DNA 1: CAATCTGAATTCCGGTCTCCC
DNA 2: TGGTGGCTACGACGGGATT
B18: UCGGAAC (DNA:RNA)
RNA: B13 RNA with A25U, A26C, A28G, U31C
DNA 1: CAATCTGAATTCCGGTCTCCC
DNA 2: TGGTGGCTACGACGGGATT
B19: CCGCAUG (DNA:RNA)
RNA: B13 RNA with A25C, A26C, A28C, A30U, U31G
DNA 1: CAATCTGAATTCCGGTCTCCC
DNA 2: TGGTGGCTACGACGGGATT
B20: AAUAUGU (DNA:RNA)
RNA: B13 RNA with G27U, A29U, A30G
DNA 1: CAATCTGAATTCCGGTCTCCC
DNA 2: TGGTGGCTACGACGGGATT
B21: CCGCUGA (DNA:RNA)
RNA: B1 RNA with G25C, A27G, G28C, U30G, C31A
DNA 1: CAATCTGAATTCCGGTCTCCC
DNA 2: TGGTGGCTACGACGGGATT
B22: AGGGCCG (DNA:RNA)
RNA: B13 RNA with A26G, A28G, A29C, A30C, U31G
DNA 1: CAATCTGAATTCCGGTCTCCC
DNA 2: TGGTGGCTACGACGGGATT
B23: ACUAGGA (DNA:RNA)
RNA: B13 RNA with A26C, G27U, A29G, A30G, U31A
DNA 1: CAATCTGAATTCCGGTCTCCC
DNA 2: TGGTGGCTACGACGGGATT
B24: AAAACCA (DNA:RNA)
RNA: B13 RNA with G27A, A29C, A30C, U31A
DNA 1: CAATCTGAATTCCGGTCTCCC
DNA 2: TGGTGGCTACGACGGGATT
B25: GAUCGCU (DNA:RNA)
RNA: B13 RNA with A25G, G27U, A28C, A29G, A30C
DNA 1: CAATCTGAATTCCGGTCTCCC
DNA 2: TGGTGGCTACGACGGGATT
B26: GUCUAUG (DNA:RNA)
RNA: B1 RNA with C26U, A27C, G28U, U29A, C31G
DNA 1: CAATCTGAATTCCGGTCTCCC
DNA 2: TGGTGGCTACGACGGGATT
B27: AAAUAGG (DNA:RNA)
RNA: B13 RNA with G27A, A28U, A30G, U31G
DNA 1: CAATCTGAATTCCGGTCTCCC
DNA 2: TGGTGGCTACGACGGGATT
B28: CUUUAAC (DNA:RNA)
RNA: B13 RNA with A25C, A26U, G27U, A28U, U31C
DNA 1: CAATCTGAATTCCGGTCTCCC
DNA 2: TGGTGGCTACGACGGGATT
B29: AACAUCC (DNA:RNA)
RNA: B13 RNA with G27C, A29U, A30C, U31C
DNA 1: CAATCTGAATTCCGGTCTCCC
DNA 2: TGGTGGCTACGACGGGATT
B30: ACACGGG (DNA:RNA)
RNA: B1 RNA with G25A, G28C, U29G, U30G, C31G
DNA 1: CAATCTGAATTCCGGTCTCCC
DNA 2: TGGTGGCTACGACGGGATT
B31: UGAGAAC (DNA:RNA)
RNA: B1 RNA with G25U, C26G, U29A, U30A
DNA 1: CAATCTGAATTCCGGTCTCCC
DNA 2: TGGTGGCTACGACGGGATT

Substitutions are numbered along the chain they refer to; changes in the protein carry UniProt numbers. Some of the results follow.

This assay has as its target T1, RBFOX1 RRM RbFoxmut (Fox-RRM*). Kind of assay: EMSA; HiTS-Eq, 1 nM pool, 10 min; buffer printed only for the single-RNA assays: 10 mM Tris pH 7.5, 150 mM NaCl, 3.4 mM EDTA, 0.001% NP-40, 30 C. Particulars: tags: His6 N-terminal (pET28a); label: 5' 32P. In a few lines: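 Purified wild-type or mutant RbFox RRM at increasing concentrations was equilibrated with 1 nM of 5′-radiolabelled RNA carrying 7 randomized nucleotides for 10 min in 50 µL. Unbound RNA was separated by 8% native PAGE and sequenced. Relative association constants came from read-count changes of each RNA species compared with the control reaction, normalised to the cognate motif.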
With B1, the binding signal was 0.0819 KA relative to UGCAUGU.

For the molecule B2, the binding signal is 0.0909 KA relative to UGCAUGU.

Consider B3, for which the binding signal is 0.0897 KA relative to UGCAUGU.

Regarding B4, the binding signal is 0.088 KA relative to UGCAUGU.

In the case of B5, the binding signal is 0.0889 KA relative to UGCAUGU.

B6: the binding signal is 0.108 KA relative to UGCAUGU.

In the case of B7, the binding signal was 0.127 KA relative to UGCAUGU.

Take B8: the binding signal is 0.0927 KA relative to UGCAUGU.

Turning to B9, the binding signal is 0.151 KA relative to UGCAUGU.

B10: the binding signal is 0.11 KA relative to UGCAUGU.

On to B11, for which the binding signal is 0.0417 KA relative to UGCAUGU.

For B12, the binding signal was 0.105 KA relative to UGCAUGU.

With B13, the binding signal was 0.0785 KA relative to UGCAUGU.

Take B14: the binding signal was 0.103 KA relative to UGCAUGU.

In the case of B15, the binding signal was 0.0773 KA relative to UGCAUGU.

On to B16, for which the binding signal is 0.107 KA relative to UGCAUGU.

B17: the binding signal was 0.0885 KA relative to UGCAUGU.

For B18, the binding signal was 0.0772 KA relative to UGCAUGU.

In the case of B19, the binding signal is 1.13 KA relative to UGCAUGU.

As to B20, the binding signal is 0.101 KA relative to UGCAUGU.

Regarding B21, the binding signal is 0.116 KA relative to UGCAUGU.

Turning to B22, the binding signal is 0.141 KA relative to UGCAUGU.

With B23, the binding signal is 0.0756 KA relative to UGCAUGU.

B24: the binding signal was 0.0991 KA relative to UGCAUGU.

B25: the binding signal was 0.0689 KA relative to UGCAUGU.

On to B26, for which the binding signal is 0.161 KA relative to UGCAUGU.

Consider B27, for which the binding signal is 0.0847 KA relative to UGCAUGU.

Take B28: the binding signal was 0.124 KA relative to UGCAUGU.

Consider B29, for which the binding signal is 0.0502 KA relative to UGCAUGU.

Turning to B30, the binding signal is 0.0642 KA relative to UGCAUGU.

Consider B31, for which the binding signal is 0.0827 KA relative to UGCAUGU.

(Values after PMC9911399, “Two distinct binding modes provide the RNA-binding protein RbFox with extraordinary sequence specificity”.)
